Measurements taken from the supplement of paper PMC4967469.
The IC50 comes from the fitted curve, where viability falls to half of the control; a fit beyond the top or the lowest dose is shown as a bound at that dose. The AUC spans the tested range (256-fold, ending at the top dose) of the same fit; values near 1 show little effect. For part of these data: Where the top dose is marked as inferred, it was calculated from the reported fits.

Tests used:
Assay in all cases: Viability of human cancer cell lines after 72 h of drug (GDSC screen)
Tubastatin A = compound: CN1CCc2c(c3ccccc3n2Cc2ccc(C(=O)NO)cc2)C1 [Tubastatin A]; conditions: top dose 20 µM
Experimental: (§1)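 Human cancer cell lines in 384-well plates, medium with 10% serum, drug for 72 h over a 256-fold dose range (nine 2-fold or five 4-fold steps up to the top dose). Adherent lines were fixed and stained with the nucleic acid dye Syto60, suspension lines read with resazurin; signal relative to control wells, capped at 0 and 100%. One two-parameter sigmoid per drug and line, fitted in a mixed model over all curves with the slope shared within a line.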

IPA-3 = compound: Oc1ccc2ccccc2c1SSc1c(O)ccc2ccccc12 [IPA-3]; conditions: top dose 32 µM; top dose inferred
Experimental: as §1

CI-1040 = compound: O=C(NOCC1CC1)c1ccc(F)c(F)c1Nc1ccc(I)cc1Cl [CI-1040]; conditions: top dose 10 µM; top dose inferred
Experimental: as §1

ZG-10 = compound: CN(C)C/C=C/C(=O)Nc1ccc(C(=O)Nc2cccc(Nc3nccc(-c4cccnc4)n3)c2)cc1 [ZG-10]; conditions: top dose 10 µM; top dose inferred
Experimental: as §1

XL-880 = compound: COc1cc2c(Oc3ccc(NC(=O)C4(C(=O)Nc5ccc(F)cc5)CC4)cc3F)ccnc2cc1OCCCN1CCOCC1 [XL-880]; conditions: top dose 5.12 µM; top dose inferred
Experimental: as §1

Temozolomide = compound: Cn1nnc2c(C(N)=O)ncn2c1=O [Temozolomide]; conditions: top dose 30 µM
Experimental: as §1

Cell Line | AUC (Tubastatin A) | IC50 (Tubastatin A) [µM] | AUC (IPA-3) | IC50 (IPA-3) [µM] | AUC (CI-1040) | IC50 (CI-1040) [µM] | AUC (ZG-10) | IC50 (ZG-10) [µM] | AUC (XL-880) | IC50 (XL-880) [µM] | AUC (Temozolomide) | IC50 (Temozolomide) [µM]
TOV-112D (ovary, adherent) | 0.978 | > 20 | 0.81 | 17 | 0.896 | > 10 | 0.71 | 2.46 | 0.58 | 0.529 | 0.934 | > 30
KYSE-450 (oesophagus, adherent) | 0.986 | > 20 | 0.788 | 13.2 | 0.911 | > 10 | 0.702 | 2.23 | 0.474 | 0.273 | 0.987 | > 30
RERF-LC-Sq1 (lung squamous cell carcinoma, adherent) | 0.961 | > 20 | 0.962 | > 32 | 0.789 | 6.9 | 0.759 | 5.12 | 0.757 | 2.57 | 0.939 | > 30
HuP-T3 (pancreas, adherent) | 0.934 | > 20 | 0.954 | > 32 | 0.639 | 1.65 | 0.687 | 2.37 | 0.675 | 1.1 | 0.97 | > 30
CHSA0011 (chondrosarcoma, adherent) | 0.934 | > 20 | 0.973 | > 32 | 0.877 | > 10 | 0.595 | 1.27 | 0.702 | 1.51 | 0.977 | > 30
PL4 (pancreas, adherent) | 0.987 | > 20 | 0.982 | > 32 | 0.857 | 8.56 | 0.668 | 1.87 | 0.598 | 0.601 | 0.986 | > 30
Calu-3 (lung adenocarcinoma, adherent) | 0.959 | > 20 | 0.98 | > 32 | 0.9 | > 10 | 0.896 | > 10 | 0.849 | > 5.12 | 0.974 | > 30
Hs-578-T (breast, adherent) | 0.987 | > 20 | 0.942 | > 32 | 0.751 | 3.48 | 0.784 | 4.54 | 0.77 | 2.06 | 0.983 | > 30
KU-19-19 (bladder, adherent) | 0.987 | > 20 | 0.95 | > 32 | 0.741 | 3.06 | 0.755 | 3.38 | 0.876 | 5.12 | 0.975 | > 30
AsPC-1 (pancreas, adherent) | 0.934 | > 20 | 0.878 | > 32 | 0.744 | 5.31 | 0.913 | > 10 | 0.738 | 2.54 | 0.942 | > 30
EW-7 (Ewing sarcoma, semi-adherent) | 0.891 | 18.4 | 0.834 | 17.4 | 0.975 | > 10 | 0.627 | 1.33 | 0.508 | 0.336 | 0.981 | > 30
